In PubChem BioAssay AID624296 (National Center for Advancing Translational Sciences (NCATS), 2012):
The whole screen tested about 350,000 compounds, of which about 9,900 (2.8%) were called active. Inconclusive means that the source gave no clear call. Such entries were picked first, then a sample of the others. Calls come from the whole dose curve; as a rule, active = well fitted activation curve with a large enough effect; inconclusive = small, poorly fitted or top-dose-only effect; inactive = no such curve, though single readings can be large or run the other way. Potencies of inconclusive entries are left out as doubtful fits.

assay: A quantitative high throughput screen for small molecules that induce DNA re-replication in MCF 10a normal breast cells.; note: nearly all actives have a fitted effect of over 50% in size; for activity, positive = re-replication: % of control where 0% means no effect; conditions: MCF 10A DNA re-replication, Hoechst nuclear intensity, 48 h; activity, positive = re-replication: at 46.1 µM (top of the series)
Potency is the fitted concentration of half-maximal effect; tags give direction and shape of the fitted curve.

Row | SMILES | Potency | activity, positive = re-replication
1 | CC(NC(=O)c1cccc(Cn2cc([N+](=O)[O-])cn2)c1)c1ccc(C(C)(C)C)cc1 (stereo not drawn) | inconclusive [activator, single point] | –
2 | COC(=O)C1=C(C)NC(=O)/C1=C\c1cc(C)n(-c2ccccc2)c1C | inconclusive [activator, full curve] | –
3 | C=CCN(CC=C)Cc1cc(=O)n2c(-c3ccccc3)csc2n1 | inconclusive [activator, partial curve, poor fit] | –
4 | O=[N+]([O-])c1cccc2ccc(/C=C/c3ccc(C(F)(F)F)cc3)nc12 | inconclusive [activator, partial curve] | –
5 | O=c1oc(Cl)c(Cl)c2ccccc12 | – | inactive: 0.174%
6 | O=C(Oc1c(CN2CCOCC2)cc(Cl)c2cccnc12)c1ccccc1Cl | inconclusive [activator, single point] | –
7 | CC(=Nc1ccc(O)cc1)c1sc2ccccc2c1O | inconclusive [activator, single point] | –
8 | COc1ccc(C(=O)COC(=O)c2ccc(N(C)C)cc2)cc1 | – | inactive: -15.1%
9 | O=C(COc1ccc2ccccc2c1)NNC(=O)Cc1ccccc1 | – | inactive: -7.87%
10 | Cc1cccn2c(=O)c3cc(C(=O)NCc4ccco4)c(=N)n(C4CCCC4)c3nc12 | active: 2.06 µM | –
11 | COc1ccc(OC)c(NS(=O)(=O)c2ccc(Cl)s2)c1 | inconclusive [activator, single point] | –
12 | CCC(C)C(=O)Nc1ccc(S(=O)(=O)N2CCCC2)cc1 (stereo not drawn) | inconclusive [activator, partial curve, poor fit] | –
13 | O=C(CSCc1ccccc1Br)NC1CC1 | inconclusive [activator, single point] | –
14 | COc1cccc(/C=N/Nc2cc(N3CCOCC3)ncn2)c1O | inconclusive [activator, single point] | –
15 | CSCCC(NS(=O)(=O)c1ccc2[nH]c(=O)c(=O)[nH]c2c1)C(=O)O (stereo not drawn) | – | inactive: -0.496%
16 | O=C(Nc1cccc(F)c1)c1sc(Cl)nc1-c1ccccc1 | inconclusive [activator, partial curve, poor fit] | –
17 | CN(C)CCn1c(NC(=O)c2ccc(Cl)cc2)nc2ccccc21 | – | inactive: -23%
18 | CCCCN(C)c1nc(-c2ccco2)c2c(c1C#N)CC(C)(C)OC2 | inconclusive [activator, single point] | –
19 | O=C(Cn1nc(-c2ccccc2)ccc1=O)Nc1ccc(N2CCN(C(=O)c3cccs3)CC2)cc1 | – | inactive: 3.51%
20 | O=c1oc2ccccc2c(Nc2ccc3ncccc3c2)c1[N+](=O)[O-] | inconclusive [activator, single point] | –
21 | S=C(Nc1ccccc1Cl)N1CCCC(c2ccccc2)=N1 | active: 13 µM | –
22 | COc1ccc(CCC(=O)Nc2cccc(S(=O)(=O)N3CCOCC3)c2)cc1OC | – | inactive: 4.44%
23 | Cc1ccc(SCC(=O)NNC(=O)C2CCCCC2)cc1 | – | inactive: -8.04%
24 | O=C(/C=C/c1ccc(Br)cc1)NC(=S)NNC(=O)c1ccco1 | inconclusive [activator, partial curve, poor fit] | –
25 | CS(=O)(=O)c1ccccc1C(=O)Nc1nc2ccccc2[nH]1 | – | inactive: 6.62%

Row | SMILES | Potency | activity, positive = re-replication
26 | COc1ccccc1N1CCN(S(=O)(=O)c2c(C)ccc3nsnc23)CC1 | – | inactive: 14.7%
27 | CN1CCC(N(C)CC(=O)Nc2cccc(Oc3ccccc3)c2)CC1 | inconclusive [activator, partial curve, poor fit] | –
28 | CC(C)n1cc(CN2CCCC(C(=O)Nc3cccc(-c4cc5ccccc5[nH]4)c3)C2)cn1 (stereo not drawn) | active: 16.4 µM | –
29 | COc1ccccc1NCC(O)Cn1c2ccccc2c2ccccc21 (stereo not drawn) | inconclusive [activator, single point] | –
30 | N#Cc1ccc(NC(=O)COC(=O)c2cccnc2Cl)cc1 | – | inactive: -0.875%
31 | Nc1ccc2nc(-c3ccc(Cl)cc3)[nH]c2c1 | inconclusive [activator, single point] | –
32 | O=C(CSc1nc2ccccc2c(=O)n1-c1ccccc1)c1c[nH]c2ccccc12 | inconclusive [activator, single point] | –
33 | COC(=O)[C@@H]1C[C@@H]2CC[C@@H](O)C[C@@H]2N1Cc1ccc(C(F)(F)F)cc1 | inconclusive [activator, partial curve, poor fit] | –
34 | CC1=C(C)CC(C(=O)Nc2nc(-c3ccc(C)cc3C)c(C)s2)C(C(=O)O)C1 (stereo not drawn) | inconclusive [activator, partial curve, poor fit] | –
35 | CCn1c2ccccc2c2nc3cc(C(=O)O)ccc3nc21 | inconclusive [activator, full curve] | –
36 | CCc1ccc(S(=O)(=O)Nc2cc3c(cc2C)n(C)c(=O)n3C)cc1 | inconclusive [activator, single point] | –
37 | CC(C)CNS(=O)(=O)c1ccc(S(=O)(=O)N2CCC3(CC2)OCCO3)cc1 | – | inactive: -57.1%
38 | CCOC(=O)Cn1nc(-c2ccc(Cl)cc2)cc1N | – | inactive: 0.106%
39 | CC(C)(C)c1cc(CNC2CS(=O)(=O)C[C@@H]2O)cc(C(C)(C)C)c1O (stereo partly drawn) | inconclusive [activator, full curve] | –
40 | COc1ccccc1OCCn1c(C)c(C=O)c2ccccc21 | – | inactive: -3.61%
41 | S=C(Nc1ccc(Br)cc1Cl)NC1CCN(Cc2ccccc2)CC1 | inconclusive [activator, single point] | –
42 | CC1=C(C#N)c2nc(N)c(C#N)c(C)c2/C1=C\c1ccc(-c2ccccc2C(=O)O)o1 | – | inactive: -4.31%
43 | O=S1(=O)C=C(Sc2nc3cc(Cl)ccc3o2)c2ccccc21 | inconclusive [activator, partial curve, poor fit] | –
44 | c1ccc2c(C[C@@H]3CNCCN3CCCCC3CCCCC3)cccc2c1 | inconclusive [activator, single point] | –
45 | COc1ccccc1CNC(=O)CCS(=O)(=O)c1ccc(Cl)cc1 | – | inactive: -0.0541%
46 | O=C(Nc1ccc(C(F)(F)F)cc1)C1CCN(S(=O)(=O)c2ccc(N3CCCC3=O)cc2)CC1 | – | inactive: -2.57%
47 | COc1ccc(S(=O)(=O)N2CCN(C(=O)c3cc(-c4ccc(Br)cc4)n[nH]3)CC2)cc1OC | – | inactive: 17.5%
48 | CCc1cccc2c(C(=O)CN3C(=O)N(C)C4(CCCCC4)C3=O)c[nH]c12 | active: 5.17 µM | –
49 | C=CC[C@@H](CC(=O)N[C@H](CO)Cc1ccccc1)C(=O)N[C@H](COC(=O)[C@@H](CC=C)Cc1ccc(F)cc1)C(C)(C)C | inconclusive [activator, single point] | –
50 | c1ccc(CSc2nc3ccccc3[nH]2)cc1 | – | inactive: 3.85%

Row | SMILES | Potency | activity, positive = re-replication
51 | O=C(Nc1ccc2c(c1)OCCO2)c1ccccn1 | – | inactive: 2.77%
52 | CCOc1ccc(CSC(=N)N)cc1[N+](=O)[O-] | inconclusive [activator, partial curve, poor fit] | –
53 | Cc1sc2ncnc(SCC(=O)NC(=O)c3cccn3C)c2c1C | – | inactive: 26.2%
54 | COc1ccc(NC(=O)c2cc(-c3ccncc3)nc3ccccc23)c(OC)c1 | inconclusive [activator, single point] | –
55 | CCOC(=O)C1C(=O)C=C(c2ccc(C)cc2)CC1c1cccc([N+](=O)[O-])c1 (stereo not drawn) | inconclusive [activator, partial curve] | –
56 | O=C(Nc1cccc(S(=O)(=O)N2CCCCCC2)c1)c1cc(=O)c2ccccc2o1 | inconclusive [activator, single point] | –
57 | O=C(Nc1ccc2c(c1)CCC2)c1ccc(Br)o1 | active: 20.6 µM | –
58 | Cc1ccccc1C(OCC(O)CN1CCC(C(N)=O)CC1)c1ccccc1 (stereo not drawn) | inconclusive [activator, partial curve, poor fit] | –
59 | Cc1ccccc1OCC(O)CN1CCN(CC(O)COc2ccccc2C)C(C)C1 (stereo not drawn) | inconclusive [activator, single point] | –
60 | CC1(c2nnc(-c3ccc(F)cc3)o2)CC(c2cccc(Cl)c2)=NO1 (stereo not drawn) | inconclusive [activator, full curve] | –
61 | CCCC(=O)Nc1nnc(SCC(=O)Nc2ccc3c(c2)OCCO3)s1 | – | inactive: 6.39%
62 | O=C(Nc1ccc(OC(F)F)cc1)c1cc(S(=O)(=O)N2CCCCC2)ccc1N1CCOCC1 | – | inactive: -4.55%
63 | CN1CCN(C(=S)C(=O)Nc2ccc(Br)cc2)CC1 | – | inactive: -8.31%
64 | CSc1c(CC(=O)Nc2ccccc2)n(C)c2ccccc12 | – | inactive: 10.3%
65 | O=C(COc1ccccc1F)NNC(=O)c1ccc(F)c(S(=O)(=O)N2CCOCC2)c1 | – | inactive: -0.946%
66 | CC(NC(=O)CN1C(=O)NC(C)(c2cccc3ccccc23)C1=O)c1ccccc1 (stereo not drawn) | – | inactive: 1.81%
67 | COc1ccc(/C=N/NC(=S)Nc2ccccc2)cc1COc1ccc(Br)cc1 | inconclusive [activator, single point] | –
68 | O=[N+]([O-])c1ccc(NN=Cc2ccccc2O)nc1 | inconclusive [activator, single point] | –
69 | Cc1cc(C)nc(NC(=NCCc2c[nH]c3ccccc23)NC(=O)Nc2ccc(Cl)c(Cl)c2)n1 | inconclusive [activator, partial curve] | –
70 | O=c1[nH]c(SCc2nc3c(cnn3-c3ccccc3)c(=O)[nH]2)nc2ccccc12 | inconclusive [activator, full curve, poor fit] | –
71 | CC(C)Cc1ccc(CN2CCCC(NC(=O)CCn3cnnn3)C2)cc1 (stereo not drawn) | inconclusive [activator, single point] | –
72 | CCCCCCn1c(CN2CCN(C(=O)c3ccco3)CC2)nc2c1c(=O)n(C)c(=O)n2C | – | inactive: 9.97%
73 | COc1cc(/C=C2\COC/C(=C\c3cc(OC)c(OC)c(OC)c3)C2=O)cc(OC)c1OC | inconclusive [activator, full curve, poor fit] | –
